Assay results as given in patent publication US10143748B2, “B-cell reduction using CD37-specific and CD20-specific binding molecules” (Emergent Product Development Seattle, LLC, priority 2005, dated 2018).

B1: 019001: humanized TRU-016 construct; Vk3: VH5-51; AA SEQ ID NO: 6 (protein)
chain: MEAPAQLLFLLLLWLPDTTGEIVLTQSPATLSLSPGERATLSCRTSENVYSYLAWYQQKPGQAPRLLIYFAKTLAEGIPARFSGSGSGTDFTLTISSLEPEDFAVYYCQHHSDNPWTFGQGTKVEIKGGGGSGGGGSGGGGTGEVQLVQSGAEVKKPGESLKISCKGSGYSFTGYNMNWVRQMPGKGLEWMGNIDPYYGGTTYNRKFKGQVTISADKSISTAYLQWSSLKASDTAMYYCARSVGPMDYWGRGTLVTVSSDQ[human IgG1 Fc with changes not shown]
modifications: Humanized TRU-016
B2: 019041: humanized TRU-016 construct; 019006 - CDR-H3 JH4; AA SEQ ID NO: 48 (protein)
chain: MEAPAQLLFLLLLWLPDTTGEIVLTQSPATLSLSPGERATLSCRASENVYSYLAWYQQKPGQAPRLLIYFAKTLAEGIPARFSGSGSGTDFTLTISSLEPEDFAVYYCQHHSDNPWTFGQGTKVEIKGGGGSGGGGSGGGGTGEVQLVQSGAEVKKPGESLKISCKGSGYSFTGYNMNWVRQMPGKGLEWMGNIDPYYGGTTYNRKFKGQVTISADKSISTAYLQWSSLKASDTAMYYCARSVGPFDYWGQGTLVTVSSDQ[human IgG1 Fc with changes not shown]
modifications: Humanized TRU-016
B3: 019044: humanized TRU-016 construct; 019006 - CDR-H3 JH5a; AA SEQ ID NO: 52 (protein)
chain: MEAPAQLLFLLLLWLPDTTGEIVLTQSPATLSLSPGERATLSCRASENVYSYLAWYQQKPGQAPRLLIYFAKTLAEGIPARFSGSGSGTDFTLTISSLEPEDFAVYYCQHHSDNPWTFGQGTKVEIKGGGGSGGGGSGGGGTGEVQLVQSGAEVKKPGESLKISCKGSGYSFTGYNMNWVRQMPGKGLEWMGNIDPYYGGTTYNRKFKGQVTISADKSISTAYLQWSSLKASDTAMYYCARSVGPFDSWGQGTLVTVSSDQ[human IgG1 Fc with changes not shown]
modifications: Humanized TRU-016

Biological target: T1, CD37 on Ramos cells (Homo sapiens, UniProt P11049)
T1 construct: Ramos cells expressing the CD20 and CD37 target antigens; endogenous in cells; host or cells: Ramos B-cell lymphoma line
T1 sequence (P11049 1-281): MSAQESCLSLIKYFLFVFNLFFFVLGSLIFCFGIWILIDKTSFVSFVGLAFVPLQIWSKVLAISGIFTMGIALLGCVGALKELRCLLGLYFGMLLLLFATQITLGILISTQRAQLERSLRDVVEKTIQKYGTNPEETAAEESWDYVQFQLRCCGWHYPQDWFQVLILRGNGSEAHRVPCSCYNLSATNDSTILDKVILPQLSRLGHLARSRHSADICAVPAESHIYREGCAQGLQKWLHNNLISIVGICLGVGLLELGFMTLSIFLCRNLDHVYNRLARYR
Assay: binding of humanized TRU-016 constructs (COS-7 conditioned media) to Ramos
Details: 3-day COS-7 conditioned media
Description: To make humanized TRU-016 constructs of the invention, the mouse framework regions of TRU-016 were aligned to human VH1 and VH5 framework residues for the heavy chain and VK1 and VK3 for the light chain. Best matches were analyzed for framework compatibility with the CDRs of the mouse variable regions. Although there were several equally compatible combinations to chose from, we had previous success using the VK3 (C01668), VH5-51(Z12373) combination, so the humanized anti-CD37 SMIPs were designed using these human frameworks joined by a 15aa Gly4Ser ((g4s)3) scFv linker. The VK3 construct was constructed with JK1 as a preferred FR4 match and the VH5 was constructed with JH2 coding for FR4, as with previously-described constructs. SMIPs were constructed de novo using overlapping oligonucleotide PCR. Full-length products were cloned into the SMIP expression vector in frame with the human IgG1 hinge, CH2, and CH3. These clones were sequence verified, transfected into COS-7 cells and 3-day conditioned media tested for binding to the 8-cell lymphoma line, Ramos. In order to increase humanization, changes were incorporated into CDR1 of the light chain at positions L25, L27 and L28 and were well tolerated, showing equal binding activity with the original humanized molecule 019001. Further DNA constructs were made in a similar fashion to alter the CDR3 of the VH region by incorporating germline amino acids, H100-H102, encoded by various human JH regions. Constructs were examined for expression level and degree of binding to CD37 on Ramos cells.

Molecule	binding to CD37 on Ramos B cells
B1	high CD37-specific binding
B2	high CD37-specific binding
B3	high CD37-specific binding
